Experimental findings from paper PMC11595612, “Phytochemical Investigation and Biological Activities of Desmodium heterocarpon Extract as Anti-Tyrosinase: Isolation of Natural Compounds, In Vitro and In Silico Study” (Life, 2024) are described below.

Usually MBC stands for the smallest concentration meeting the test's criterion for killing. Read a low MBC as greater bactericidal potency. The term MIC denotes the lowest concentration found to suppress growth. The low end stands for inhibition by little substance, the high end for a need for much substance.

Values after ≈ are worked out from the molar mass of the structure shown. Some results are limits rather than exact numbers.

This assay concerns Methicillin-resistant Staphylococcus aureus (MRSA 1350II 06). In words: MIC/MBC by micro-dilution method. (Dilution methods test growth across graded concentrations, often in twofold steps.)
The compound `O=c1c(-c2ccc(O)cc2)coc2cc(O)cc(O)c12` [compound 1, genistein] came in with an MBC of more than 100 µg/mL and an MIC of more than 100 µg/mL.
As to `CCCCCCCCCCCCCCCC(=O)O` [compound 2, hexadecanoic acid], the MBC was more than 100 µg/mL and the MIC was more than 100 µg/mL.
Compound `CC[C@H](CC[C@@H](C)[C@H]1CC[C@H]2[C@@H]3CC=C4C[C@@H](O[C@@H]5O[C@H](CO)[C@@H](O)[C@H](O)[C@H]5O)CC[C@]4(C)[C@H]3CC[C@]12C)C(C)C` [compound 4, β-sitosterol-D-glucoside] displayed an MBC of more than 100 µg/mL and an MIC of more than 100 µg/mL.
For the compound `O=C(O)c1cccc(O)c1O` [compound 5, 2,3-dihydroxybenzoic acid], the MBC worked out at 15 µg/mL (≈ 97.3 µM) and it took 15 µg/mL (≈ 97.3 µM) to inhibit growth (MIC).
The compound `O=C(O)c1cc(O)ccc1O` [compound 6, 2,5-dihydroxybenzoic acid] showed an MBC of 35 µg/mL (≈ 227 µM) and an MIC of 15 µg/mL (≈ 97.3 µM).
